# Measurements: PubChem BioAssay AID504333 (National Center for Advancing Translational Sciences (NCATS), 2011)
# Hit rate of the full screen: of about 360,000 compounds, about 16,000 (4.4%) were called active. This list was built around the results that the source calls inconclusive (neither active nor inactive); the mix of calls is not that of the screen. Calls follow the shape of the dose curve; as a rule, active = well fitted inhibition curve with a large enough effect; inconclusive = small, poorly fitted or top-dose-only effect; inactive = no such curve, though single readings can be large or run the other way. Potencies beside an inconclusive call are fits to weak or partial responses and may not hold up.
# Molecular target: Bromodomain adjacent to zinc finger domain protein 2B (Homo sapiens) (UniProt Q9UIF8)
# Assay: qHTS Assay for Inhibitors of BAZ2B; also: nearly all actives have a fitted effect of over 60% in size
# Details: AlphaScreen BAZ2B-H3K14Ac peptide displacement; activity change, negative = inhibition: at 114 µM (top of the series)
# Method in brief: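 Protein-peptide AlphaScreen: BAZ2B 50 nM, b-H3K14Ac 50 nM, 1x PBS pH 7.4 + 0.01% Tween-20. Preincubation 30 min RT; cpd 30 min RT (top 110 uM); beads 20 min RT, light-protected.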
# % is scaled to controls: 0 for no effect and ±100 for the full control effect; potency is read from the fitted curve at half-maximal effect; tags tell the direction and shape of the fitted curve.
# UniProt Q9UIF8, sequence (Q9UIF8 whole entry, looked up, the tested form may be a part): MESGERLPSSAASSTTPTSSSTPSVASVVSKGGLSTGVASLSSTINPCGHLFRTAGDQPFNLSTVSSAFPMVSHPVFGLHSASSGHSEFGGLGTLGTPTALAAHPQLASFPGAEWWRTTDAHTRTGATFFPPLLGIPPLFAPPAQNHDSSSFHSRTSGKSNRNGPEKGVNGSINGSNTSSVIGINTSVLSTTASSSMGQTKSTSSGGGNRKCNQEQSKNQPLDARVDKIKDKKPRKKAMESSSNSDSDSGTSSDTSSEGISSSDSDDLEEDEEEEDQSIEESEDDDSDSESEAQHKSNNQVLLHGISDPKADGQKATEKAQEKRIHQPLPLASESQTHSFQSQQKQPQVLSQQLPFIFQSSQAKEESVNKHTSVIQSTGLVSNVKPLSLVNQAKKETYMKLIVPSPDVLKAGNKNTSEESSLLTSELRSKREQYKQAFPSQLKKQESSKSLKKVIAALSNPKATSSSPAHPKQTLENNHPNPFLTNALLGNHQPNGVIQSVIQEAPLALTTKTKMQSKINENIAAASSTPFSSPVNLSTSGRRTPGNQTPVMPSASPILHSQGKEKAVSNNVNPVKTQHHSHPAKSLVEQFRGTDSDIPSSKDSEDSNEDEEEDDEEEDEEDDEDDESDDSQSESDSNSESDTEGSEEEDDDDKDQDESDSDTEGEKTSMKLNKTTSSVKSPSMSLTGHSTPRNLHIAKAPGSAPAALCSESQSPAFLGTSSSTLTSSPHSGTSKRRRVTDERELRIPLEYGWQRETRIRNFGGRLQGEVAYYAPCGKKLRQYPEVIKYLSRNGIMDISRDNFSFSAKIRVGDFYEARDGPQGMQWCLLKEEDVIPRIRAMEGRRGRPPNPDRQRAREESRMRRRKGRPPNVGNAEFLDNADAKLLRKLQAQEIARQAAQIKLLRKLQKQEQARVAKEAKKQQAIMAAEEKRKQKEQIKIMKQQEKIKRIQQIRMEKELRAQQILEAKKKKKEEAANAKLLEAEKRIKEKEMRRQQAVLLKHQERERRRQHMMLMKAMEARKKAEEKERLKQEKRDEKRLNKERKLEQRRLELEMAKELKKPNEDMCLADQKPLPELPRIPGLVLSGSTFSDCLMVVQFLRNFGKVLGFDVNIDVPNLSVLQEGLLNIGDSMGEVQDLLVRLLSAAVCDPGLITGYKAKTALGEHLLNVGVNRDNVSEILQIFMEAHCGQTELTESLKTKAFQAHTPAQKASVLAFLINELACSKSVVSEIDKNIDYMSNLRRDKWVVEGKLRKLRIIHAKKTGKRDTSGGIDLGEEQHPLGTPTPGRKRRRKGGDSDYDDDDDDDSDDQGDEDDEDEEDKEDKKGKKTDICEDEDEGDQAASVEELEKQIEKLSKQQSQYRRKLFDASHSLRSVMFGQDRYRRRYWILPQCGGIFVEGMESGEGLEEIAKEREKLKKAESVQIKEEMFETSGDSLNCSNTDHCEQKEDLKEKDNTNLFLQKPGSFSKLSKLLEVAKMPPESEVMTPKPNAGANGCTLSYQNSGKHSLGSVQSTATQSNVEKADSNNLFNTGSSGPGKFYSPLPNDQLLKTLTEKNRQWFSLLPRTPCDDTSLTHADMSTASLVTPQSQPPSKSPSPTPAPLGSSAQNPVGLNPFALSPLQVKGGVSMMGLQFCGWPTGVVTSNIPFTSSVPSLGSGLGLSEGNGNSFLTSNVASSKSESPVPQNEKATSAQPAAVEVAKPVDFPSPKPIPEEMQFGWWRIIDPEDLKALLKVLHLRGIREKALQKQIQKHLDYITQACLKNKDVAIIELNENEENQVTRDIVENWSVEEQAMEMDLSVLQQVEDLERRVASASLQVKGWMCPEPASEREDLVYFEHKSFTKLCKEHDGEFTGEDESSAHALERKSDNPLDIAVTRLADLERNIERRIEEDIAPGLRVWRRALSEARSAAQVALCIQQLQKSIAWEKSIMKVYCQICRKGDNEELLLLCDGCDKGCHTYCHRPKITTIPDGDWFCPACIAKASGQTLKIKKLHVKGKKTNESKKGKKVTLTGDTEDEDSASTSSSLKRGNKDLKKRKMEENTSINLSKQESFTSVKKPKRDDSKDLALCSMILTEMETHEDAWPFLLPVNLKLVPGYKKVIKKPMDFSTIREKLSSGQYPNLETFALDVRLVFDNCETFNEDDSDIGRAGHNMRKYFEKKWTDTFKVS
SMILES,Potency,"activity change, negative = inhibition"
CCOC(=O)C1=C(N)n2c(s/c(=C/c3ccco3)c2=O)=C(C(=O)OC)C1c1ccco1 (stereo not given),"inconclusive: 44.7 µM [inhibitor, partial curve]",–
C#CCOCCOCCOCCNc1nc(N2CCN(C(=O)[C@H](CCC(=O)O)n3cc(C(N)CC(C)C)nn3)CC2)nc(N2CCN(C(=O)[C@H](Cc3ccc(O)cc3)n3cc(C(N)CC(C)C)nn3)CC2)n1 (stereo not given in full),active: 79.4 µM,–
CCOC(=O)c1cnc2ccc(C)cc2c1Nc1ccc(N2CCOCC2)cc1,active: 35.5 µM,–
CN1C(=O)C2(OCC(CO)([N+](=O)[O-])CO2)c2ccccc21 (stereo not given),–,inactive: -0.198%
COc1cnc(-c2ccccn2)nc1Oc1cccc(Cl)c1,active: 44.7 µM,–
CC(=O)c1ccc(S(=O)(=O)NC2CCSc3ccccc32)cc1 (stereo not given),"inconclusive: 79.4 µM [inhibitor, single point]",–
CC1(C)[N+]([O-])=C2C(=[N+]([O-])C1(C)C)c1ccccc1/C2=N\O,"inconclusive: 89.1 µM [inhibitor, single point]",–
COc1ccccc1NC(=O)COC(=O)c1ccc(S(=O)(=O)NCc2ccco2)cc1,"inconclusive: 89.1 µM [inhibitor, single point]",–
O=C(C1CCN(Cc2cc(Cl)ccc2O)CC1)N1CCN(Cc2ccccc2)CC1,"inconclusive: 89.1 µM [inhibitor, single point]",–
CSc1nnc(C)c(/C=C/Nc2ccc(C)cc2)n1,–,inactive: 9.02%
C/C(=N\Nc1nc2ccccc2[nH]1)c1ccc2c(c1)OCO2,"inconclusive: 39.8 µM [inhibitor, partial curve]",–
CCN(CC)CC#CC(OC)(c1ccccc1)c1ccccc1,"inconclusive: 79.4 µM [inhibitor, single point]",–
Cc1cc(O)ccc1Nc1nc(-c2cccnc2)cs1,"inconclusive: 79.4 µM [inhibitor, single point]",–
CCOC(=O)c1cnc2ccc(Cl)cc2c1Nc1ccc(N2CCOCC2)cc1,active: 14.1 µM,–
CC(=O)Nc1ccc(NC(=O)C(C)OC(=O)c2cccc(S(=O)(=O)N3CCCCC3)c2)cc1 (stereo not given),–,inactive: -11.2%
O=C(Nc1ccc(C(=O)N2CCN(c3ccccc3)CC2)cc1)c1nsc2ccccc12,–,inactive: -16.4%
S=c1nc[nH]c2c1sc1nc(N3CCOCC3)c3c(c12)CCCC3,"inconclusive: 0.316 µM [inhibitor, full curve, poor fit]",–
NC(=O)[C@@H]1CCCNc2c(I)cc([N+](=O)[O-])cc2C(=O)N[C@@H](CO)C(=O)NCC(=O)N1,–,inactive: -0.83%
Clc1cccc(OCCN2CCN(CCOc3cccc(Cl)c3)CC2)c1,"inconclusive: 79.4 µM [inhibitor, single point]",–
O=[N+]([O-])c1cc(CN2CCN(c3ccccc3)CC2)c(O)c2ncccc12,active: 3.16 µM,–
Cc1ccc2c(c1)c1c3n2CCN(CC#N)C3CCC1 (stereo not given),"inconclusive: 44.7 µM [inhibitor, partial curve]",–
Cc1cc(N2CCN(S(=O)(=O)c3ccc(Cl)c(Cl)c3)CC2)c2ccccc2n1,"inconclusive: 10 µM [inhibitor, partial curve]",–
O=C(CCc1nnc2ccc(NCc3ccccc3)nn12)NC1CCCCC1,"inconclusive: 89.1 µM [inhibitor, single point]",–
COc1ccc(NCc2nnc(SCC(=O)Nc3cc(C)cc(C)c3)o2)cc1,"inconclusive: 79.4 µM [inhibitor, single point]",–

SMILES,Potency,"activity change, negative = inhibition"
CC(C)C(=O)NC(c1ccc(N(C)C)cc1)c1c(O)ccc2ccccc12 (stereo not given),–,inactive: -25.8%
CNC(=O)c1c(NC(NC(=O)c2ccco2)C(=O)c2ccc(Cl)cc2)sc2c1CCCC2 (stereo not given),"inconclusive: 70.8 µM [inhibitor, single point]",–
O=C1CCCN1CCCNCC(O)c1ccccc1 (stereo not given),"inconclusive: 70.8 µM [inhibitor, single point]",–
O=S(=O)(c1ccc(F)cc1)N1CCN(c2nc(-c3cccnc3)nc3ccccc23)CC1,–,inactive: -0.282%
CCC(C)NC(=O)CCc1c(C)nc2cc(-c3ccc(OC)cc3OC)nn2c1C (stereo not given),–,inactive: -4.35%
Cc1ccc(NC(=O)CSc2nc(C)c(C)c(C)n2)c([N+](=O)[O-])c1,"inconclusive: 70.8 µM [inhibitor, single point]",–
OC1(c2cccnc2)CCN(Cc2nnnn2C2CCCCC2)CC1,"inconclusive: 89.1 µM [inhibitor, single point]",–
Cc1ccc(NC(=O)c2cc(NC(=O)c3ccccc3C(=O)O)ccc2N2CCCCC2)cc1,"inconclusive: 56.2 µM [inhibitor, partial curve]",–
O=C(NCCc1ccccc1)c1ccc(NCC2CCCO2)c([N+](=O)[O-])c1 (stereo not given),"inconclusive: 35.5 µM [inhibitor, partial curve]",–
O=C(CC(c1ccc(F)cc1)c1ccco1)Nc1nccs1 (stereo not given),"inconclusive: 79.4 µM [inhibitor, partial curve]",–
Cc1ccc(N=C2S/C(=C\c3cn(CC(=O)O)c4ccccc34)C(=O)N2C)cc1,"inconclusive: 79.4 µM [inhibitor, single point]",–
O=C(Nc1ccccc1)c1n[nH]c(Cn2cncn2)n1,"inconclusive: 100 µM [inhibitor, single point]",–
NS(=O)(=O)c1cccnc1Nc1ccc(Cl)c(Cl)c1,–,inactive: -0.67%
CC1CCN(c2ccccc2NC(=O)c2ccc(N3CCOCC3)c([N+](=O)[O-])c2)CC1,–,inactive: 6.53%
CCc1nnc(NC(=O)CCN2C(=O)CCC2=O)s1,–,inactive: 7.23%
COc1cccc(-c2nc(N3CCCC3)c3ccccc3n2)c1O,"inconclusive: 79.4 µM [inhibitor, single point]",–
COCCN(C(=O)CCC(=O)Nc1nccs1)C(C(=O)NCCC(C)C)c1ccc(OC)cc1 (stereo not given),–,inactive: -11.7%
COc1ccc2[nH]cc(CCCN3C(=O)c4ccccc4C3=O)c2c1,"inconclusive: 79.4 µM [inhibitor, single point]",–
Cc1ccc(C)c(-c2csc(N/N=C/c3ccco3)n2)c1,"inconclusive: 12.6 µM [inhibitor, full curve]",–
C/C=C(\C)C(=O)N1CC2(CC(c3cccc(NC(=O)CC(c4ccccc4)c4ccccc4)c3)=NO2)C[C@H]1C(N)=O (stereo not given in full),"inconclusive: 79.4 µM [inhibitor, single point]",–
O=C1Nc2ccc(Br)cc2C1=C1CCCCC1,–,inactive: -36.5%
COc1ccc(C(=O)NCC(c2ccco2)S(=O)(=O)c2cccs2)cc1OC (stereo not given),–,inactive: -4.28%
O=S(=O)(c1ccccc1)N1CCN(C(=S)Nc2ccc(Br)cc2)CC1,–,inactive: -15.1%
CCOC(=O)c1cnc2ccc(OC)cc2c1Nc1ccc(N2CCN(C)CC2)cc1,active: 35.5 µM,–

SMILES,Potency,"activity change, negative = inhibition"
CCOC(=O)C1CCCN(C(=O)c2[nH]c3ccccc3c2Sc2ccc(Cl)cc2)C1 (stereo not given),"inconclusive: 89.1 µM [inhibitor, single point]",–
CC(C)C1N=C(c2ccc3c(c2)OCO3)CC(c2ccccc2O)N1 (stereo not given),"inconclusive: 89.1 µM [inhibitor, single point]",–
COc1ccc(Nc2nc(-c3ccc(OC)cc3)c(CCC(=O)O)s2)cc1,"inconclusive: 50.1 µM [inhibitor, partial curve]",–
CCOCCCNCC(=O)NC1(C)C2CCC(C2)C1(C)C (stereo not given),active: 56.2 µM,–
NC(=O)c1cc(S(=O)(=O)NCCCc2ccco2)cs1,"inconclusive: 79.4 µM [inhibitor, partial curve]",–
CCCC(=O)OCC(=O)Nc1cc(Cl)ccc1[N+](=O)[O-],active: 39.8 µM,–
COc1ccc(C2(c3ccc(OC)cc3)NC(=O)N(CC(=O)Nc3ccc(N4CCOCC4)cc3)C2=O)cc1,"inconclusive: 44.7 µM [inhibitor, partial curve]",–
CC(C)CC(C(=O)Nc1oc(-c2ccco2)c(-c2ccco2)c1C#N)N1C(=O)c2ccccc2C1=O (stereo not given),active: 31.6 µM,–
CC1(c2ccccc2)NC(=S)N2C1NC(=S)N2c1ccccc1 (stereo not given),–,inactive: -34.9%
CC1=C/C(=C/N(C)c2ccccc2)C(=O)S1,"inconclusive: 79.4 µM [inhibitor, single point]",–
Cc1ccc(NC(=O)COC(=O)c2ccc3c(c2)NC(=O)C2CCCN32)cc1 (stereo not given),"inconclusive: 89.1 µM [inhibitor, single point]",–
Cc1cccc(NC(=O)NCCN2CCN(c3ccccc3)CC2)c1C,–,inactive: -22.1%
C#CCOCCOCCOCCNc1nc(N2CCN(C(=O)C(Cc3ccc(O)cc3)n3cc(C(N)CC(C)C)nn3)CC2)nc(N2CCN(C(=O)C(Cc3cc4ccccc4[nH]3)n3cc(C(N)C(C)CC)nn3)CC2)n1 (stereo not given),active: 50.1 µM,–
COc1ccc2[nH]c(O)c(N=NC(=O)Cc3cccs3)c2c1,active: 35.5 µM,–
Cc1cc(C)cc(OCCNC(=O)c2cc(S(=O)(=O)N3CCOCC3)ccc2F)c1,–,inactive: 7.59%
CCOC(=O)c1c(C)oc2c1c(C(c1cccnc1)N1CCCCC1)c(O)c1ccccc12 (stereo not given),"inconclusive: 89.1 µM [inhibitor, single point]",–
COc1ccc(CCNC(C(=O)Nc2cc(C)cc(C)c2)c2ccccc2)cc1 (stereo not given),–,inactive: -10.8%
CCOC(=O)c1cnc2c(C)cccc2c1Nc1ccc(N2CCOCC2)cc1,active: 14.1 µM,–
CCOc1cccc(C(=O)NC(=S)Nc2ccc3c(c2)OCCO3)c1,"inconclusive: 39.8 µM [inhibitor, partial curve]",–
CCN(CC)C(=O)CSc1nnc(COc2cccc(C)c2)n1C,–,inactive: -0.0596%
Cc1cc(C)n2nc(C(=O)N/N=C/c3cn(C)nc3C)nc2n1,"inconclusive: 70.8 µM [inhibitor, partial curve, poor fit]",–
CN(CCCNC(=O)c1cn(C)c2ccc(S(=O)(=O)N(C)C)cc2c1=O)c1ccccc1,"inconclusive: 39.8 µM [inhibitor, partial curve]",–
